These results are taken from publication PMC11194079.

By UniProt entry, the sequences of proteins in these tests, tags left out.
UniProt P61407: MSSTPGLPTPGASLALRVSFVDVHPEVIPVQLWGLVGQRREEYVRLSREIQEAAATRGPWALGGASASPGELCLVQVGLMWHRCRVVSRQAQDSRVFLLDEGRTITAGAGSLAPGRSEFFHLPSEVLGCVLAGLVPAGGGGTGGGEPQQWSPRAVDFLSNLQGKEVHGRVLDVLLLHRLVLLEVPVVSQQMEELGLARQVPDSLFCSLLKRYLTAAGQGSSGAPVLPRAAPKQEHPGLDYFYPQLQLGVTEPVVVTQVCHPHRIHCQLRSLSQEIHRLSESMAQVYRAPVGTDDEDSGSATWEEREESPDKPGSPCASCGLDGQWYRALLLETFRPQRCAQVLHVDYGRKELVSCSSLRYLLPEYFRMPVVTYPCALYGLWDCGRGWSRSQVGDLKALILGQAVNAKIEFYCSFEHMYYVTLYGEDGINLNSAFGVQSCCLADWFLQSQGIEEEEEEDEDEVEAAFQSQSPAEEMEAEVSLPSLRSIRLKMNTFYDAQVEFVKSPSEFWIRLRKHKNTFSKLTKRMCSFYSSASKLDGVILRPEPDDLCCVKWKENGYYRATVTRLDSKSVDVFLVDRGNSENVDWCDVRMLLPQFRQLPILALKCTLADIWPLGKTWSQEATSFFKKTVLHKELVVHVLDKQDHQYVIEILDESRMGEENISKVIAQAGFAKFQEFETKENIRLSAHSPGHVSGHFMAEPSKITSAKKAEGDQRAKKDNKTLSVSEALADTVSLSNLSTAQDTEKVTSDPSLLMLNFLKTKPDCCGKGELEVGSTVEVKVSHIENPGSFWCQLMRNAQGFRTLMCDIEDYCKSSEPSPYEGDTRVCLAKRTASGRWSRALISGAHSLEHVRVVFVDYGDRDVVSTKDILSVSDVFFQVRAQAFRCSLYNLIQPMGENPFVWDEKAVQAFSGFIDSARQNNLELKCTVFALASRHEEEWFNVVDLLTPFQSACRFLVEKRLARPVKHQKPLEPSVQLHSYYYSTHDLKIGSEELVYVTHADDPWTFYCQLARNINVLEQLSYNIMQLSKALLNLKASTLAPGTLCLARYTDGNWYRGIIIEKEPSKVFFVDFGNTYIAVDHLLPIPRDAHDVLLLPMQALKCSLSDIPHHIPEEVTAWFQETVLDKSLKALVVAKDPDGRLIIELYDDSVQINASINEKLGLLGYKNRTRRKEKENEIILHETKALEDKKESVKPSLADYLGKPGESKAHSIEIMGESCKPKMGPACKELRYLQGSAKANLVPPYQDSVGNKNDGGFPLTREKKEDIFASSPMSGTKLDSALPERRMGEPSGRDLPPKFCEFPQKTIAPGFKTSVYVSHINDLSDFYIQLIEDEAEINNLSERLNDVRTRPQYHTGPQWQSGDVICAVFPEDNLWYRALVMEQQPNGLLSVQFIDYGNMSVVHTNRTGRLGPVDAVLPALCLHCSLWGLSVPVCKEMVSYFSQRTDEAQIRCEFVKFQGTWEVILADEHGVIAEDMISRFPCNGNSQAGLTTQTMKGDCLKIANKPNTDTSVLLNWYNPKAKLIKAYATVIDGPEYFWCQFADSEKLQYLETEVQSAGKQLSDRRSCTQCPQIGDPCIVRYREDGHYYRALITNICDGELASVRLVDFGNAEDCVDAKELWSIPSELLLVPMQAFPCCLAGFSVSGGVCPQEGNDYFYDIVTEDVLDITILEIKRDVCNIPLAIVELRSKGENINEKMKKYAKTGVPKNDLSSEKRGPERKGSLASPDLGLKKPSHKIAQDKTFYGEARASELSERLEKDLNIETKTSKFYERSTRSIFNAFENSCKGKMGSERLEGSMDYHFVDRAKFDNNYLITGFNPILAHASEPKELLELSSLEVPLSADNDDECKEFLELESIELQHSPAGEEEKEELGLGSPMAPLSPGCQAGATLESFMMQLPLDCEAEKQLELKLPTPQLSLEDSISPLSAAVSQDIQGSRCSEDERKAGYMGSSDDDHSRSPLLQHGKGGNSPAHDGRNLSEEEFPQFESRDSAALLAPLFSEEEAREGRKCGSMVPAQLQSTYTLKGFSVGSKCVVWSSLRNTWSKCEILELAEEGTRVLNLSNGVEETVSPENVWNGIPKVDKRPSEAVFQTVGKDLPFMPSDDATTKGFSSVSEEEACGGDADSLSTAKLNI

Common to all, as to assay: co-IP; MIWI immunoprecipitated with an antibody against MIWI and Protein G Dynabeads from P24 testis lysates (Miwi^+/RK or Miwi^RK/RK), 4°C; lysis and wash buffer 20 mM Tris pH 7.5, 200 mM NaCl, 2.5 mM MgCl2, 0.5% NP-40, 0.1% Triton X-100, 1 mM TCEP; western blot
The target of assay [1] is MIWI (PIWIL1), wild type (mouse) (UniProt Q9JMB7).
Assay [2] has the same target. This is another data set of the same source.
The target in assay [3] is T1, MIWI-RK (MIWI with the six N-terminal arginines replaced by lysines) (mouse), Q9JMB7.
T1 chain: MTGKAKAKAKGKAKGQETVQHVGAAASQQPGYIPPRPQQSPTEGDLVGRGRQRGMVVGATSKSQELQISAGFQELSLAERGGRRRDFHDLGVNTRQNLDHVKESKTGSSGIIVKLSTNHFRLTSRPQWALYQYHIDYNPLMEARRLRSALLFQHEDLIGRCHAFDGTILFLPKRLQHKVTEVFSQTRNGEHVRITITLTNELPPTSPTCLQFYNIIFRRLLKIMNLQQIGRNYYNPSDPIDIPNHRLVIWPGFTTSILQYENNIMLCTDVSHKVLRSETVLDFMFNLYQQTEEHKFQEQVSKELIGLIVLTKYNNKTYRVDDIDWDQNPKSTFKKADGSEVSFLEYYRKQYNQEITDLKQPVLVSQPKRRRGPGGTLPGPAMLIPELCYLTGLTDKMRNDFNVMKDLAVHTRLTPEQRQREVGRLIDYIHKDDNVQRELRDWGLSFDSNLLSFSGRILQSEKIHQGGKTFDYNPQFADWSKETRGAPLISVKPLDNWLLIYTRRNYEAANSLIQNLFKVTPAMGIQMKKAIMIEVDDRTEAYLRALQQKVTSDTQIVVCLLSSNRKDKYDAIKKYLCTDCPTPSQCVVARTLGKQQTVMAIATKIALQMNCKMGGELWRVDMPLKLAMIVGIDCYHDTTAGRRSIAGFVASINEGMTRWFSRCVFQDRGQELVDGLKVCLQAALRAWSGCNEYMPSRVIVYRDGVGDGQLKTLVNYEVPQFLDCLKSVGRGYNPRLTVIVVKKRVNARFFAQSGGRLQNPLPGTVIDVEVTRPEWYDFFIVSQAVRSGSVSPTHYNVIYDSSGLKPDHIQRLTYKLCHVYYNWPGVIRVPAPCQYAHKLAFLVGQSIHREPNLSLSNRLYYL
Conditions: remark: other sources report otherwise.

Assay [4] deals with MIWI-RK (MIWI with the six N-terminal arginines replaced by lysines) (mouse) (UniProt Q9JMB7).

Where two headings read alike, the source gives them in different places. No constants are given. Whether binding was seen depends on the method and setting. In cells and extracts the contact can be indirect. Some binding calls cover weakened binding; strength is not graded here.

As for TDRD6 (from UniProt P61407 1-2134), the binding result in assay [1] is recorded as “binds”.

B1: TDRD5 (protein, UniProt Q5VCS6 1-1040)
chain: MSEQERIQDCLRKEIRSLLISTKDGLTPQQLEKEYLLMVGNHLPLRILGYRSTMELVLDMPDVVSVCPGGDGTVILKAIPDESTKGIASLVAKQRRSHKVRNSMPKGRPSICSGRVPYRGRVPPILPAVVKSELKDLLALSPVLLSDFEKAFARRFGRSFQYMQYGFLSMFEVLNAASDVISVEQTRAGSLLTLKKSVSEDKQRGWPAGKVFTQPFRMKQQGSYSTGFPVMKAHFSQPISNMEPPKQVLSMAKTPTFNSVEASRLNHTEKLNQLESTFKSVIAQIGPGGTVDPELKRKIQFVVSKFPQGLFISKLLGEFELTFKEQLSPKQLGFLNVTELVGALSDILRVEFSEERQDLLVFDADLKPLPSGGPLSSVRNSCLVQPDKKTEANPWTSSLSRNSLSTVAVKKTTWDCPLKNQKEPEQKIYKKPNLVVKPLQLQVETNKPQLSLSVANHDIPPDAVRAKKLCRLPPLDTSTLVGVFVEYIISPSQFYIRIYSRDSSELLEDMMIEMRRCYSNQLVSDRYIMPEYFIQPGHLCCVKISEDKWWYRVIIHRILGKKEVEVFYPDFGNIGTVQKSSLRFLKCCYTKLPAQAIPCSLAWVRPAEEHWTARAILHFQKLCGLKPLVGVVDEYIDGILNIFLCDTSSNEDVYFHHVLRTEGHAIVCRENAPSKGFRDFNPPALYTNASSAGDMVLTDLGHPAQQHYLNEDQEILQQAQQDINDGKCISYLKSAPKELLKDSKLSSLKTHKSCEEDPRWSILQPKDLKEENEDEVPTGMPCLESVTIGDDVWDENWLPLQAKMGKAGSPASQLFTSNLVGKKQYQTGGEMAQKDWCFSTSKDIWDDSWQPLGLANDVKGGIHTPEGPIAQEKNTSTTRIQQQPDLQYPLDSSTLPKLEEFYISLIKSQQSAERSQSEPASIQTHAGRAASKALSSTPAVGDSPENHSGSVESSPGSLKKEDVSNSRAEATAKDKSQGAIDQLSFILSPQHQISQKLYIPRSTATAVLGAAARLATSRSLLHWYPSVKGGKLEAERDGVK
In the case of B1, the binding result in assay [2] is “binds”.

B2: TDRD5, Q5VCS6 1-1040 (protein)
chain: B1 chain
As for B2, in assay [3], the binding result is given as “no binding”.

B3: TDRKH (TDRD2) (protein, UniProt Q80VL1 1-560)
chain: MSTERTSWTNLSTIQKIALGLGIPASATVAYILYRRYRESREERLTFVGEDDIEIEMRVPQEAVKLIIGRQGANIKQLRKQTGARIDVDTEDVGDERVLLISGFPVQVCKAKAAIHQILTENTPVFEQLSVPQRSVGRIIGRGGETIRSICKASGAKITCDKESEGTLLLSRLIKISGTQKEVAAAKHLILEKVSEDEELRKRIAHSAETRVPRKQPISVRREEVTEPGGAGEAALWKNTNSSMGPATPLEVPLRKGGGDMVVVGPKEGSWEKPNDDSFQNSGAQSSPETSMFEIPSPDFSFHADEYLEVYVSASEHPNHFWIQIIGSRSLQLDKLVSEMTQHYENSLPEDLTVHVGDIVAAPLSTNGSWYRARVLGTLENGNLDLYFVDFGDNGDCALKDLRALRSDFLSLPFQAIECSLARIAPTGEEWEEEALDEFDRLTHCADWKPLVAKISSYVQTGISTWPKIYLYDTSDEKKLDIGLELVRKGYAVELPEDMEENRTVPNMLKDMATETDDSLASILTETKKSPEEMPHTLSCLSLSEAASMSGDDNLEDDLF
With B3, the binding entry in assay [4] is “no binding”; in assay [2] it was “binds”.
